This is one part of the list. At the low end of the ranking the order means little.

For this test, the target named is SIX1 homeodomain (reference allele) (UniProt Q15475). Description: universal protein binding microarray. To be noted: Universal all-10-mer PBM (8x60K, AMADID 030236), 300 nM GST-tagged protein, Alexa Fluor 488 anti-GST; buffer, salt, pH and temperature not stated; high values mean tight binding; most listed sequences are background and not binding sites; double strand, one strand shown.
As for AATTTTTA, the binding signal is -0.255 E-score.

On to CCTTCGTA, for which the binding signal was -0.0751 E-score.

Consider GGATCATA, for which the binding signal is 0.433 E-score.

As for GTCGTCTA, the binding signal was -0.111 E-score.

Take AAGAAATC: the binding signal is -0.202 E-score.

Turning to CTGGTGAA, the binding signal is -0.218 E-score.

As for AGTGCGTC, the binding signal is -0.279 E-score.

Regarding CAGTTTGA, the binding signal was 0.0166 E-score.

TAGCACCA: the binding signal is -0.0985 E-score.

Turning to AGTTCCCC, the binding signal was -0.0617 E-score.

For CACTTGTC, the binding signal turned out to be 0.0936 E-score.

As for CCACATAA, the binding signal was -0.0434 E-score.

In the case of GGAGCGCC, the binding signal was 0.00257 E-score.

On to ATGATGTC, for which the binding signal is -0.153 E-score.

AAGCTGGT: the binding signal was -0.239 E-score.

Regarding AGTATCCA, the binding signal is 0.391 E-score.

In the case of CCAATTAG, the binding signal turned out to be 0.188 E-score.

Turning to AAAAAGTT, the binding signal was -0.197 E-score.

In the case of GACCATCA, the binding signal was -0.246 E-score.

On to CCTTTCAC, for which the binding signal was -0.158 E-score.

Take ATGCGGGA: the binding signal came out at 0.0791 E-score.

Take AACTCATC: the binding signal was -0.027 E-score.

Regarding CTACGAGC, the binding signal was -0.0977 E-score.

Take TAAACAAA: the binding signal was -0.241 E-score.

As to ACTGATAG, the binding signal is 0.315 E-score.

Turning to AAGCGCCG, the binding signal is -0.155 E-score.

As for AGAATTAG, the binding signal is -0.237 E-score.

For CAGTGGTC, the binding signal is -0.282 E-score.

For ACGCGGAA, the binding signal is -0.22 E-score.

Turning to CGTCTAGC, the binding signal was 0.00937 E-score.

AGGCATAG: the binding signal is -0.11 E-score.

Consider GCGGTACC, for which the binding signal is 0.149 E-score.

Consider GTACCCCA, for which the binding signal stood at 0.0948 E-score.

For AATGCTCC, the binding signal was -0.321 E-score.

As for GTGCCATA, the binding signal is -0.118 E-score.

As for ACCTATCG, the binding signal turned out to be 0.236 E-score.

On to AGGCGTGC, for which the binding signal is -0.223 E-score.

With GGCCTCAA, the binding signal is -0.167 E-score.

With GTCGCTTA, the binding signal was -0.0286 E-score.

Take GGCAAGAA: the binding signal is -0.0724 E-score.

Take CGGAGATA: the binding signal is 0.314 E-score.

In the case of CTTCTTGC, the binding signal was -0.0367 E-score.

Take CGAGGCGC: the binding signal is -0.0371 E-score.

For the sequence AGGGGAAC, the binding signal was -0.168 E-score.

For the sequence AGGACGCC, the binding signal was -0.109 E-score.

Consider TACGCGAA, for which the binding signal is -0.158 E-score.

With GAGTAAGC, the binding signal is -0.19 E-score.

For AACTCGAG, the binding signal is -0.102 E-score.

For the sequence AACCCGTC, the binding signal was -0.0578 E-score.

As to CTACAATC, the binding signal amounted to 0.074 E-score.

As to CGCTCCCA, the binding signal is -0.189 E-score.

For the sequence ACCCGGGC, the binding signal is -0.0233 E-score.

Consider AACCTTAC, for which the binding signal was -0.109 E-score.

For GCGATTAA, the binding signal came to 0.103 E-score.

Regarding GCTACAGA, the binding signal was -0.147 E-score.

Take CAAGGCAC: the binding signal was -0.15 E-score.

Take GTGGCAGA: the binding signal was -0.239 E-score.

Turning to ACCTGCAA, the binding signal is -0.0559 E-score.

In the case of CATGCCCA, the binding signal is -0.205 E-score.

On to CGGTCGAA, for which the binding signal is -0.241 E-score.

In the case of ACTCGTTC, the binding signal is -0.163 E-score.

Consider GACTCCAA, for which the binding signal is -0.195 E-score.

As for ACAACAAA, the binding signal is -0.238 E-score.

With GAGTGCGA, the binding signal was -0.116 E-score.

ACTGTCCC: the binding signal is -0.128 E-score.

On to CGTCGTTA, for which the binding signal is -0.149 E-score.

For the sequence AACAACCT, the binding signal is -0.278 E-score.

Take CGAGTTTA: the binding signal was -0.155 E-score.

With CACCCATG, the binding signal was 0.0507 E-score.

Consider GAACTGAA, for which the binding signal is -0.174 E-score.

In the case of AATTGATA, the binding signal amounted to 0.344 E-score.

Regarding TATCTAAA, the binding signal was 0.301 E-score.

With GTGTACAC, the binding signal was 0.222 E-score.

Regarding CGCCGTTC, the binding signal is -0.0508 E-score.

As to GACCCGAC, the binding signal stood at 0.086 E-score.

Regarding AGTGGTCG, the binding signal is -0.188 E-score.

Turning to ACCAAGCC, the binding signal is -0.0929 E-score.

For ATTCCAGG, the binding signal was -0.0225 E-score.

As for GATGTGCC, the binding signal was -0.176 E-score.

In the case of CTCACACA, the binding signal was -0.12 E-score.

As to AAGGTAGA, the binding signal was found to be 0.0599 E-score.

As for CAACACAC, the binding signal is -0.0362 E-score.

With GAGTCTTA, the binding signal was -0.186 E-score.

GATACTCA: the binding signal came out at 0.429 E-score.

As to ATTCATCG, the binding signal was -0.0402 E-score.

Turning to ACTTGTCG, the binding signal was -0.0931 E-score.

AATTGTGT: the binding signal was -0.0358 E-score.

For AGATTACC, the binding signal was 0.0512 E-score.

Regarding CCCACAAC, the binding signal is -0.106 E-score.

With GGCAACGA, the binding signal was found to be 0.0646 E-score.

Turning to CACCTTAA, the binding signal was 0.0259 E-score.

Regarding CTCTACCC, the binding signal was 0.0702 E-score.

CACATATA: the binding signal was determined as 0.165 E-score.

Take CGTTCTAC: the binding signal was -0.149 E-score.

As to AGATGGCT, the binding signal worked out at 0.0116 E-score.

GGACGAAA: the binding signal was -0.254 E-score.

With CGCGCAAG, the binding signal was -0.0149 E-score.

Regarding GTACCGAC, the binding signal is -0.0272 E-score.

On to AGCTAACA, for which the binding signal is -0.0587 E-score.

In the case of CGTAGGAG, the binding signal is -0.0882 E-score.

With ACGTGGCC, the binding signal is -0.154 E-score.

With ATCGGAGC, the binding signal came to 0.0936 E-score.

With ATTTACGA, the binding signal is -0.0498 E-score.

Take CGAAGTTA: the binding signal is -0.322 E-score.

For the sequence CCGAGATC, the binding signal came to 0.294 E-score.

Take TACCAGGA: the binding signal turned out to be 0.165 E-score.

As to TCATTCAA, the binding signal is -0.0677 E-score.

As for GAAGCGTA, the binding signal is 0.0129 E-score.

Turning to TGGACGAA, the binding signal is -0.201 E-score.

As to GACCGTCC, the binding signal was -0.121 E-score.

For TGACGAAA, the binding signal was -0.183 E-score.

ATCTTCGG: the binding signal was 0.0796 E-score.

As to AGTTTATA, the binding signal amounted to 0.0641 E-score.

For the sequence GCGTTAGC, the binding signal is -0.199 E-score.

On to CAACGCCG, for which the binding signal is -0.0993 E-score.

As to CGCCACAC, the binding signal was -0.0535 E-score.

Turning to GACGTGAC, the binding signal is -0.24 E-score.

Turning to TCCATTAA, the binding signal was found to be 0.0579 E-score.

GTGGTTAA: the binding signal was -0.213 E-score.

On to CGGTCGAG, for which the binding signal was -0.0515 E-score.

For GTCCACCA, the binding signal is -0.157 E-score.

As to GGATTTAA, the binding signal was -0.0649 E-score.

Turning to ATGACATA, the binding signal is 0.00711 E-score.

Regarding AGAAACCC, the binding signal is 0.0543 E-score.

As for CGAGCGGA, the binding signal was found to be 0.061 E-score.

Consider CATTGCGC, for which the binding signal is -0.279 E-score.

Consider AAGCGAGC, for which the binding signal was -0.169 E-score.

For the sequence CCTCTGTA, the binding signal was -0.0182 E-score.

For the sequence ACGCAAAA, the binding signal is -0.129 E-score.

With ATTAGTCC, the binding signal was determined as 0.0194 E-score.

Turning to TGAACCCA, the binding signal came to 0.0214 E-score.

Regarding GACCTCGC, the binding signal was -0.191 E-score.

Consider ATAACGAT, for which the binding signal stood at 0.221 E-score.

Take GGCTTGAC: the binding signal is -0.155 E-score.

As to AATATAGC, the binding signal is 0.0273 E-score.

With CATTACGG, the binding signal was -0.121 E-score.

For the sequence ACTTCACC, the binding signal was -0.077 E-score.

For GAACAAGC, the binding signal is -0.202 E-score.

For the sequence CCGACGAG, the binding signal is -0.0344 E-score.

Take AGTCCATG: the binding signal is -0.193 E-score.

For ATAACTTC, the binding signal was -0.16 E-score.

CGCTCGCC: the binding signal is -0.0508 E-score.

With TACCCCGA, the binding signal was 0.261 E-score.

For the sequence TATCACAA, the binding signal amounted to 0.385 E-score.

In the case of AGGAGTCG, the binding signal was -0.197 E-score.

On to AACTGTAC, for which the binding signal was -0.211 E-score.

Consider TCACGGCA, for which the binding signal is -0.0582 E-score.

Consider ACAATCAA, for which the binding signal is -0.176 E-score.

CAAGCCCC: the binding signal was -0.0421 E-score.

Regarding GCAGTGAA, the binding signal was -0.183 E-score.

Consider AACGGCTT, for which the binding signal is -0.322 E-score.

Regarding GGTTATTA, the binding signal came out at 0.0464 E-score.

Turning to ATCCAATC, the binding signal was found to be 0.222 E-score.

ACTTTGCA: the binding signal was -0.0812 E-score.

Turning to ACAGGCGG, the binding signal amounted to 0.0614 E-score.

As to AAAAGGTC, the binding signal is -0.309 E-score.

For the sequence CATCGTAG, the binding signal is 0.00944 E-score.

Turning to CGCATTCA, the binding signal is -0.219 E-score.

For the sequence AGCCCTCG, the binding signal is -0.111 E-score.

Consider CCGACTAG, for which the binding signal was -0.144 E-score.

Turning to AGGTGCGC, the binding signal is -0.241 E-score.

In the case of ATCGACTC, the binding signal is 0.0791 E-score.

In the case of AGCGAACT, the binding signal was -0.302 E-score.

With GCAGCTAC, the binding signal was -0.191 E-score.

For CGATGTTC, the binding signal turned out to be 0.0122 E-score.

For the sequence AGACGACA, the binding signal came to 0.0274 E-score.

Turning to CAGGAGGC, the binding signal was -0.13 E-score.

Regarding AGATTTCA, the binding signal was -0.126 E-score.

With ATGGCGTG, the binding signal was -0.0766 E-score.

Consider AAACGGTA, for which the binding signal was 0.14 E-score.

As for CTTCTCTA, the binding signal is -0.177 E-score.

ATGTGAGG: the binding signal was determined as 0.061 E-score.

(Values after paper PMC10668032.)
